Test results as given in the supplement of paper PMC10338343.
± gives the standard deviation. The list shows a part of the results, in another mix than the full data.

system: MIWI (PIWIL1) piRISC loaded with L1MC piRNA (30 nt); test: pre-steady-state target cleavage rate (min^-1); MIWI and MILI are mouse PIWI proteins and EfPiwi is from a freshwater sponge; tags in brackets are library labels; higher = faster piRNA-guided slicing of the target; details: guide: L1MC piRNA 5'p-UAACUAAAUACUAUGCAAGCUGUAGGUCCU; auxiliary factor: 500 nM mouse GTSF1
Outline: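 A transcribed, DNA-blocked target RNA library (0.1 nM) and 1 nM active affinity-purified piRISC bearing one synthetic guide were incubated in HEPES–potassium acetate buffer at 33 °C for 0–8 or 0–960 min, either with or without 500 nM GTSF1 partner protein. Uncleaved targets were sequenced, normalised to depth and to weakly complementary targets, and pooled over three trials, with k3 capped at 0.0001 min^-1. The pre-steady-state cleavage rate was derived with a burst-and-steady-state fit.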

Point of comparison: UCCUGGAUGUCCUUGCAUAGUAUUCUAGUUA, “pre-steady-state target cleavage rate” value 0.0314 ± 0.0088. Against it:
- UCCUGCUACAGCAUGCAUAGUAUUUACAAA — higher, 0.201 ± 0.042
- UCCACCUACUGCUUGCAUAGUAUUUUCAAA — higher, 0.137 ± 0.02
- UCCUGGAUGUCGAAGCAUAGUAUUUGGUUA — lower, 0.00555 ± 0.004
- UCCUGGUACAGCUUCCAAAGUAUUUAGUUA — higher, 0.312 ± 0.05
- UCCUCCUACAGCUUGCUAUAGUAUUUAGUUA — within error, 0.0332 ± 0.012
- UCCACCUACAGCUUGCAUAGUAAUUACAAA — higher, 0.323 ± 0.061
- UCCUGGAACACGUUGCAUAGUAUUUUCAAA — lower, 0.00665 ± 0.0042
- UCCUGGAUGUCGUUGCUUAGUAUUUACUUA — lower, < 0.0001
- AGGACCUACAGCUUGCAAUAGUAUUUAGUUA — higher, 0.148 ± 0.027
- UCCUGGAUCAGCUUGCAAUGUAUUUAGAAA — within error, 0.0215 ± 0.008
- UGGACCUACAGCUUGGUAAGUAUUUAGUAA — lower, 0.00984 ± 0.0043
- UCCUGGAUGUCGAACCAAAGAAUUUAGUUA — lower, < 0.0001
- UCCUGGAUGUCGAACGUAUGUAUAUAGUUA — lower, < 0.0001
- UCCUCCUACAGCUACCAUAGUAUUUACAAA — within error, 0.0268 ± 0.013
- UCCUGGAUGUCCAUGCAUAGUAUUUAGUAA — lower, 0.0109 ± 0.0052
- UGGACCUACAGCAAGCAUAGUAUUUUCAAA — higher, 0.226 ± 0.051
- UCCUGCUACAGCUUGCAUAGAUUUUUCAAA — lower, 0.00611 ± 0.004
- AGGACCUACAGCUUGCAUACUAUUUUCAAA — higher, 0.217 ± 0.044
- UCCUGCUACAGGUUCCAUAGUAUUUAGUUA — within error, 0.0205 ± 0.013
- UCCUCCUACAGCUUGCAUAGUAAUUACAAA — higher, 0.301 ± 0.054
- UCCACCUACAGCUUCGAUAGUAUUUAGUUA — higher, 0.571 ± 0.033
- UCCUCCUACAGCAACCAUAGUAUUUAGUAA — higher, 0.0869 ± 0.025
- UCCUGCAUGAGCUUGCAUAGUAUUUACAAA — higher, 0.17 ± 0.04
